# The supplement of paper PMC10338343
# ± gives the standard deviation. The entries are a selection whose mix differs from that of the whole data set.
# Tested on: MIWI (PIWIL1) piRISC loaded with piRNA #1 (30 nt)
# Test: pre-steady-state target cleavage rate (min^-1); MIWI and MILI are mouse PIWI proteins and EfPiwi is from a freshwater sponge; tags in brackets are library labels; higher = faster piRNA-guided slicing of the target
# Details: guide: piRNA #1 5'p-UGAGGUAGUAGGUUGUAUAGUAUCCAGAGG; auxiliary factor: 500 nM mouse GTSF1
# Procedure, shortened: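 In this Cleave-'n-Seq assay, uncleaved targets were sequenced and normalised to depth and to weakly complementary targets. They came from a transcribed, DNA-blocked target RNA library […] mixed with 1 nM active affinity-purified piRISC carrying one synthetic guide, with or without 500 nM GTSF1 partner protein, in HEPES–potassium acetate buffer at 33 °C for 0–8 or 0–960 min. After three trials were pooled and k3 was capped at 0.0001 min^-1, the pre-steady-state cleavage rate was obtained from a burst-and-steady-state fit.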
# 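Further: 1 nM active piRISC with 0.1 nM target library at 33 °C single turnover.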
row,Sequence,pre-steady-state target cleavage rate
1,GGAGACCAUACUAUACAACCUUCUUCCUCA,0.177 ± 0.021
2,GGAGAGGUUACUAUACAACCAACUACCUCA,0.109 ± 0.0084
3,GGUCUGGAUACUAAACAACCAACUACCUCA,0.117 ± 0.013
4,GGAGACGAUACUAUACAUCCUAGUACCUCA,0.302 ± 0.033
5,GGUCUGGAUACUAUACAACCUACAACCUCA,0.383 ± 0.04
6,GCUCUCGAUACUAUACAACCUACUUCCUCA,0.735 ± 0.042
7,GGAGAGGAUACUAUACAACCAUGUACCUCA,0.0042 ± 0.002
8,GGUCUGGAUACUUUACAACCUACUAGCUCA,0.00909 ± 0.0025
9,CCACUGGAUACUAUACUACCUACUACCUCA,1.88 ± 0.13
10,CCUCUGGAUACUAUACCACCUACUACCUCA,1.82 ± 0.11
11,GGUCUGCAUACUAUUCAACCUACUACCUCA,1.65 ± 0.12
12,GGACUGGAUACUAUAGCAACCUACUACCUCA,0.931 ± 0.12
13,GGAGUGGAUACUAAAGAACCUACUACCUCA,1.2 ± 0.083
14,GCUCAGGAUACUAUACAACCAACUACCUCA,0.139 ± 0.013
15,GGAGUCCUUACUAUACAACCUACUACCUCA,1.61 ± 0.12
16,GGAGUGGAUACUAUACAUGGUACUACCUCA,0.0286 ± 0.0046
17,GGAGACCUAACUAUACAACCUAUCUACCUCA,0.0122 ± 0.0045
18,GGUCUGGAUACUAUACACCUACUACCUCA,0.284 ± 0.033
19,GGAGUGGAUACUAUACAACCAACUACGUCA,0.079 ± 0.0092
20,GGAGUGGAUACUAUACAACCUAGAUCCUCA,0.00605 ± 0.0017

row,Sequence,pre-steady-state target cleavage rate
1,GGAGACCUUACUAUAGAACCUACUAGCUCA,0.00437 ± 0.0042
2,CCUCUGGAUACUUUACAACCUACUACCUCA,1.99 ± 0.12
3,GGAGACGAUACUAUACAACGUACUACCUGA,0.283 ± 0.041
4,CUCUGGAUACUAUACAACCUACUACCUCA,2.17 ± 0.14
5,GGACUGCAUACUAUUCAACCUACUACCUCA,1.35 ± 0.12
6,GGAGUGGAUACUAUACAACCUUCUAGCUCA,0.00427 ± 0.0018
7,GGAGAGGAAACUAUAGAACCUACUACCUCA,1.02 ± 0.057
8,GGAGACCUAUCUAUACAACCAACUACCACA,0.0112 ± 0.0031
9,GGAGACGAUAAUAUACAACCUACUACCUCA,1.53 ± 0.1
10,GGAGACCUAUGAUAUCCAACCUACUACCUCA,0.00339 ± 0.0015
11,CCUCUGGAUACUAUACAACCUACAACCUGA,0.543 ± 0.1
12,GGAGUGGAUAGUAUACAACCUACUACCUCA,0.437 ± 0.03
13,CCUCUGGAUACUAUAGUUCCUACUACCUCA,0.226 ± 0.029
14,GGAGACCUAUGAAGUACAACCUACUACCUCA,0.00467 ± 0.0028
15,CCUCUCGAUACUAUACAUCCUACUACCUCA,1.97 ± 0.12
16,GGAGAGGAAACUAUACAACCUUCUACCUCA,0.626 ± 0.043
17,GGAGACCUAUCUAUACAACCUAGAUCCUCA,0.00558 ± 0.002
18,GCUCUGGAUACUAUACAACCUACUACCUUA,1.73 ± 0.11
19,GGAGUGGAUAGUAUACAUCCUACUACCUCA,0.651 ± 0.046
20,GGAGACCAUACUAAACUACCUACUACCUCA,0.13 ± 0.017
